The campaign covered roughly 310,000 compounds. About 18,000 (5.8%) were called active. The shares of active, inactive and inconclusive entries below differ from those in the screen. The call rests on the fitted dose curve; in most records, active means well fitted inhibition curve with a large enough effect; inconclusive means small, poorly fitted or top-dose-only effect, or another doubt; inactive means no such curve, though single readings can be large or run the other way. Potencies of inconclusive entries are left out as doubtful fits.
Assay: Primary qHTS for delayed death inhibitors of the malarial parasite plastid, 48 hour incubation
Settings: P. falciparum luciferase growth in erythrocytes; series mostly up to 28.7 µM
How it was run: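 Read-out is firefly luciferase luminescence from an integrated reporter in P. falciparum, so falling signal marks reduced parasite growth. Infected erythrocytes were at 2% hematocrit and 0.1% parasitemia (final) in Albumax-supplemented RPMI 1640.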
In the case of `Cc1ccc(S(N)(=O)=O)cc1NC(=O)C1CC2CCC1C2` (stereo not given), the Potency is reported as “inactive”.
In the case of `O=C(NCc1n[nH]c(=S)n1-c1ccccc1)c1cccs1`, the Potency is reported as inconclusive [inhibitor, full curve, poor fit].
In the case of `Cc1ccc2[nH]c(=O)c(CN(C(=O)c3cccc([N+](=O)[O-])c3)C(C)(C)C)cc2c1`, the Potency is reported as inconclusive [inhibitor, single point].
With `COc1ccc(C2SCCN2C(=S)Nc2ccc(Cl)cc2)cc1` (stereo not given) the Potency was inconclusive [inhibitor, single point].
For `CCN(CC)S(=O)(=O)c1ccc(S(=O)(=O)NCc2cccs2)cc1`, the Potency was “inactive”.
For `O=C(NCCC1=CCCCC1)C1CCN(S(=O)(=O)c2cccc(C(F)(F)F)c2)CC1`, the Potency was inconclusive [inhibitor, single point].
In the case of `CCCc1[nH]nc2c1C(c1cc(OC)ccc1F)C(C#N)=C(N)O2` (stereo not given), the Potency is reported as inconclusive [inhibitor, single point].
With `Cc1c(CCC(=O)NCCCCCC(=O)O)c(=O)oc2c(C)c3oc4c(c3cc12)CCCC4` the Potency was “inactive”.
With `COC(=O)c1c(NC(=O)C2(C)Cc3ccccc3C(=O)O2)sc2c1CCCC2` (stereo not given) the Potency was inconclusive [inhibitor, full curve, poor fit].
For `CC(C)(C)n1nnnc1C(c1ccc(Cl)cc1)N1CCSCC1` (stereo not given), the Potency was inconclusive [inhibitor, single point].
In the case of `CCOc1ccc(N=C2SC(C(=O)Nc3ccccc3C#N)C(N)=C2C(=O)Nc2ccc(Cl)cc2)cc1` (stereo not given), the Potency is reported as inconclusive [inhibitor, single point].
In the case of `CCOc1ccc(NC(=O)C2CCCN2S(=O)(=O)c2ccc3c(c2)C(C)(C)C(=O)N3C)cc1` (stereo not given), the Potency is reported as “inactive”.
For `CCC(C)c1ccccc1N1CC(C(=O)NCCc2ccc(OC)c(OC)c2)CC1=O` (stereo not given), the Potency was inconclusive [inhibitor, partial curve].
In the case of `CCCc1nc2ccccc2c(C(=O)OCC(=O)Nc2cccc(S(=O)(=O)N3CCOCC3)c2)c1CC`, the Potency is reported as inconclusive [inhibitor, partial curve, poor fit].
In the case of `O=C1C=CC(=O)N1c1cccc(-c2ccccc2)c1`, the Potency is reported as “inactive”.
For `Cc1nn(Cc2c(Cl)cccc2Cl)c(C)c1NC(=O)c1cnn2c(C(F)F)cc(-c3ccccc3)nc12`, the Potency was inconclusive [inhibitor, partial curve].
In the case of `C=CCN1C(=O)/C(=C2/Sc3ccccc3N2CCCS(=O)(=O)O)SC1=S`, the Potency is reported as inconclusive [inhibitor, partial curve, poor fit].
For `CCCOc1ccc(NC(=O)CC2C(=O)Nc3ccccc3N2CC(=O)N2CCCC2)cc1` (stereo not given), the Potency was inconclusive [inhibitor, single point].
With `CC(C)(C)c1ccc(NC(=O)c2ccsc2)cc1` the Potency was inconclusive [inhibitor, full curve, poor fit].
In the case of `Cc1cc2nc(-c3ccc(SCC(=O)Nc4ccc(S(=O)(=O)NC5CC5)cc4)nc3)[nH]c2cc1C`, the Potency is reported as inconclusive [inhibitor, full curve].
With `OC(CNCc1cccc(Cl)c1)c1ccccc1` (stereo not given) the Potency was active: 2.08 µM.
In the case of `Cc1cc(C)nc(SCc2nc3ccccc3n2C)n1`, the Potency is reported as “inactive”.
For `CCN1c2nc3c(C)cccn3c(=O)c2CC2(C(=O)N(C)C(=O)N(C)C2=O)C1C` (stereo not given), the Potency was inconclusive [inhibitor, partial curve].
For `COC(=O)CSc1ccnc2cc(Cl)ccc12`, the Potency was “inactive”.
With `Cc1nc2ccccc2nc1CN1CCN(Cc2ccc(F)c(F)c2)C(CCO)C1` (stereo not given) the Potency was inconclusive [inhibitor, partial curve, poor fit].
With `O=C(Nc1ccncc1NC(=O)c1cccc([N+](=O)[O-])c1)c1cccc([N+](=O)[O-])c1` the Potency was inconclusive [inhibitor, partial curve, poor fit].
With `COc1ccc(OC)c(CN2CCC(CNC(=O)Nc3cccc(Cl)c3)CC2)c1` the Potency was inconclusive [inhibitor, single point].
For `CCCCC(=O)NC(Nc1nc(C2CC2)cs1)(C(=O)OCC)C(F)(F)F` (stereo not given), the Potency was inconclusive [inhibitor, partial curve].
For `COc1ccc(O[C@H]2C=C[C@@H](c3ccccc3)O[C@@H]2COC(=O)CC/C(C)=N/OC[C@@H](O)[C@H]2O[C@@H]3OC(C)(C)O[C@@H]3[C@H]2O)cc1`, the Potency was inconclusive [inhibitor, single point].
In the case of `O=c1[nH]c2ccccc2c2oc(CCl)nc12`, the Potency is reported as inconclusive [inhibitor, full curve, poor fit].
For `CN(C)S(=O)(=O)c1cccc(C(=O)N=C2N=C3C=CC(Cl)=CN3Cc3ccccc32)c1`, the Potency was inconclusive [inhibitor, single point].
With `Cc1cccc(CCNC(=O)COc2cc(=O)n(C)c3ccccc23)c1` the Potency was “inactive”.
In the case of `COc1cc(N(Cc2ccccc2)Cc2ccccc2)c2ncn(C(C)C)c2c1`, the Potency is reported as active: 5.86 µM.
With `C=CCn1c(C)cc(C(=O)COC(=O)/C=C/c2c(C)nn(C3CCS(=O)(=O)C3)c2Cl)c1C` (stereo not given) the Potency was inconclusive [inhibitor, single point].
In the case of `COc1ccc(CSCCc2n[nH]c(=S)n2-c2ccccc2)cc1C`, the Potency is reported as inconclusive [inhibitor, single point].
With `CC(=O)Nc1ccc(S(=O)(=O)N(C)CC(=O)N/N=C/c2cccc(O)c2)cc1` the Potency was “inactive”.
In the case of `COc1ccc(-c2c(C#N)c(N)nc3sc(C(=O)c4ccccc4)c(N)c23)cc1`, the Potency is reported as active: 9.28 µM.
In the case of `COCCn1c(N)c(C(=O)NCc2cccs2)c2nc3ccccc3nc21`, the Potency is reported as inconclusive [inhibitor, single point].
For `O=C(c1ccc(-n2ccnc2)cc1)N1CCCC(CO)(Cc2cccc(Cl)c2)C1` (stereo not given), the Potency was inconclusive [inhibitor, partial curve].
For `CCOC(=O)C1CCCN(C(=O)c2ccc3c(c2)NC(=O)C(N2CCOCC2)S3)C1` (stereo not given), the Potency was active: 8.28 µM.
In the case of `CC(OC(=O)c1ccc(NC(=O)CC#N)cc1)C(=O)Nc1ccc2c(c1)OCCO2` (stereo not given), the Potency is reported as inconclusive [inhibitor, single point].
In the case of `CCSC1=C(C#N)C(c2ccc(Cl)cc2)C2=C(CCCC2=O)N1` (stereo not given), the Potency is reported as inconclusive [inhibitor, single point].
With `Cc1ccc(NC(=S)N(CCCN(C)C)Cc2cc3cc4c(cc3[nH]c2=O)OCO4)cc1` the Potency was inconclusive [inhibitor, partial curve].
In the case of `CCOC(=O)C1(CCOc2ccccc2)CCN(Cc2ccc(O)cc2)CC1`, the Potency is reported as active: 13.1 µM.
For `CCCCOc1cc(C)nc(NCc2ccccc2)n1`, the Potency was active: 13.1 µM.
For `COc1ccc(-c2cc(C)no2)cc1S(=O)(=O)N1CCOc2ccc(Cl)cc21`, the Potency was inconclusive [inhibitor, partial curve, poor fit].
With `O=C(NCc1ccccc1)c1cc(=O)c2ccccc2o1` the Potency was inconclusive [inhibitor, single point].
For `O=C(NCc1ccc(Cl)cc1)c1cccc2c1C(=O)N(CC1CCCO1)C2` (stereo not given), the Potency was “inactive”.
In the case of `COc1ccc2c(c1)c1nnc(SC)nc1n2C`, the Potency is reported as “inactive”.
In the case of `COc1cccc(C(C(=O)Nc2ccc(F)cc2)N(C(=O)Cn2nnc3ccccc32)C2CC2)c1` (stereo not given), the Potency is reported as inconclusive [inhibitor, single point].
For `CC(CCc1ccco1)N(C)S(=O)(=O)c1csc(C(N)=O)c1` (stereo not given), the Potency was inconclusive [inhibitor, single point].
For `CCCCNC(=S)N(Cc1c(C)noc1C)c1ccccc1`, the Potency was inconclusive [inhibitor, single point].
For `CC(C)n1c(-c2ccco2)csc1=Nc1cccnc1`, the Potency was inconclusive [inhibitor, single point].
In the case of `O=C(CSc1nnc(-c2ccco2)n1Cc1ccccc1)NCc1ccccc1`, the Potency is reported as inconclusive [inhibitor, partial curve].
In the case of `Cc1cccc(N2CCN(C(=S)Nc3ccc4nc5n(c(=O)c4c3)CCCCC5)CC2)c1C`, the Potency is reported as “inactive”.
With `CCC[N+]12CCC(CC1)C(C(O)(c1ccccc1)c1ccccc1)C2` (stereo not given) the Potency was inconclusive [inhibitor, single point].
For `Cc1ccc(C(=O)OCC(=O)NCc2cc(C)c(O)c(C)c2)cc1S(=O)(=O)N1CCCCC1`, the Potency was active: 8.28 µM.
With `COCCn1c(CNc2ccc(F)cc2)nnc1SCC(=O)Nc1ccc(OC)cc1OC` the Potency was “inactive”.
With `COc1ccc(N(CC(=O)Nc2cc(OC)ccc2OC)S(=O)(=O)c2c(C)noc2C)cc1` the Potency was inconclusive [inhibitor, single point].
In the case of `CCOc1ccc(S(=O)(=O)N2CCCC(C(=O)NCC3CCCO3)C2)cc1` (stereo not given), the Potency is reported as inconclusive [inhibitor, partial curve, poor fit].
With `O=C(c1ccc(CS(=O)c2ccccc2Cl)o1)N1CCN(c2ccccn2)CC1` (stereo not given) the Potency was “inactive”.
In the case of `O=C(NC1CCCCC1)C(c1ccc2ncccc2c1)N(Cc1ccc2c(c1)OCO2)C(=O)c1cccs1` (stereo not given), the Potency is reported as inconclusive [inhibitor, partial curve].
With `Cc1ccc(C(=O)N(CCCN(C)C)c2nc3ccc(Cl)cc3s2)cc1C` the Potency was active: 11.7 µM.
With `Cc1ccc2c(CN3CCN(Cc4ccccc4)CC3)cc(=O)oc2c1` the Potency was inconclusive [inhibitor, partial curve, poor fit].
For `CC(C)C(NC(=O)c1ccccc1NC(=O)c1ccccc1)C(=O)NNC(=O)c1ccncc1` (stereo not given), the Potency was inconclusive [inhibitor, single point].
Potency means the concentration at half of the fitted maximal effect; tags describe the fitted curve by direction and shape.
